Test results from the supplement of paper PMC12340641.
Over roughly 1,000 compounds, “relative growth in counter assay (no AraC = 100%, AraC + DMSO = 0%)” has its median near -1.1; the highest 2% begin near 20. Some of the results follow.

system: HEK293FT dCK*-only; test: relative growth in counter assay (no AraC = 100%, AraC + DMSO = 0%); higher = more growth rescue independent of IKZF1; details: compound concentration: 5 uM; AraC concentration: 0.3 uM; overnight pretreatment + 4 days AraC
Experimental: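 Growth recovery screen of the molecular-glue-like (Specs) library. HEK293FT cells expressing a dCK*-IKZF1 fusion (primary) or dCK* alone (counter) were pretreated overnight with compound at 5 uM, then given 0.3 uM AraC for 4 days. Hoechst nuclei were counted by imaging. Primary: normalised to pomalidomide (100%) and DMSO (0%), mean of 2 replicates. Counter: normalised to no-AraC (100%) and AraC+DMSO (0%), single replicate.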

Compound | relative growth in counter assay [%]
Cc1nc(Nc2cccc(C3CCN(C(=O)CCc4c(C)n[nH]c4C)CC3)n2)sc1C | 9.88
COc1cc(NS(=O)(=O)c2ccc(NC(=O)CCC(=O)O)cc2)nc(OC)n1 | 0.12
O=C1CCC(N2C(=O)c3cccc(N4CCC(Cn5cc(C(=O)O)cn5)CC4)c3C2=O)C(=O)N1 (stereo not given) | 4.03
COc1ccc(NS(=O)(=O)c2ccc(N)cc2)nn1 | -2.37
COc1ccc(CC(=O)Nc2ccc(S(=O)(=O)Nc3ncccn3)cc2)cc1OC | -21.6
O=C1CCC(N2C(=O)c3cc(F)c(N4CCN(C5CCC(C(=O)O)CC5)CC4)cc3C2=O)C(=O)N1 (stereo not given) | 4.66
COCC(=O)N1CCCC1c1cccc(Nc2ncc(C)s2)n1 (stereo not given) | 0.29
Cc1cccc(OCCCC(=O)Nc2ccc(S(=O)(=O)Nc3nc(C)cc(C)n3)cc2)c1 | 0.67
Cc1csc(Nc2cccc(C3CCCN3C(=O)c3ccc4c(c3)CCCN4C)n2)n1 (stereo not given) | 13.3
O=C(O)CCOCCOCCOCCNc1ccc2c(c1)C(=O)N(C1CCC(=O)NC1=O)C2=O (stereo not given) | 9.38
Cc1ccc(OCC(=O)Nc2ccc(S(=O)(=O)Nc3ncccn3)cc2)cc1C | 2.12
Cc1nc(Nc2cccc(C3CN(CC(=O)N4CCC(C)CC4)CCO3)n2)sc1C (stereo not given) | 7.05
Cc1csc(Nc2cccc(C3CN(C(=O)c4[nH]nc5c4CCCCC5)CCO3)n2)n1 (stereo not given) | 10
CCc1ccc(N2CC(C(=O)Nc3ccc(S(=O)(=O)Nc4ncccn4)cc3)CC2=O)cc1 (stereo not given) | 5.54
CCCc1cnc(Nc2cccc(C3(CO)CCN(C(=O)C4CCCCC4)CC3)n2)s1 | -21.5
Cc1cc(C)cc(OCC(=O)Nc2ccc(S(=O)(=O)Nc3ccccn3)cc2)c1 | 3.13
Cn1c(=O)c2c(ncn2CC(=O)Nc2ccc(S(=O)(=O)Nc3ncccn3)cc2)n(C)c1=O | 1.91
COc1nccnc1NS(=O)(=O)c1ccc(NC(=S)NC(=O)c2ccco2)cc1 | 8.67
COc1cc2c(cc1CCC(=O)N1CCCC1c1cccc(Nc3nccs3)n1)CCC2 (stereo not given) | -3.49
COc1cc(C(=O)Nc2ccc(S(=O)(=O)Nc3ccccn3)cc2)cc(OC)c1OC | -0.76
Cc1ccnc(NS(=O)(=O)c2ccc(NC(=O)c3ccccc3C(=O)O)cc2)n1 | -2.52
O=C(Nc1ccc(Oc2ccc3c(c2)C(=O)N(c2ccc(O)cc2)C3=O)cc1)c1cccs1 | 3.48
CNCC(=O)N1CCC(CO)(c2cccc(Nc3ncc(-c4ccccc4)s3)n2)CC1 | -9.33
O=C(COc1ccc(Cl)cc1)Nc1ccc(S(=O)(=O)Nc2ccccn2)cc1 | -2.37

Compound | relative growth in counter assay [%]
Cc1cnc(Nc2cccc(CC3CCN(CC(N)=O)CC3)n2)s1 | -24.6
O=C(O)CC1CCN(c2cccc3c2C(=O)N(C2CCC(=O)NC2=O)C3=O)CC1 (stereo not given) | 4.23
CCOc1ccccc1C(=O)Nc1ccc(S(=O)(=O)Nc2ncccn2)cc1 | 6.59
COc1nccnc1NS(=O)(=O)c1ccc(NC(=O)c2cccc(C)c2)cc1 | -1.6
Cc1ccc(OCC(=O)Nc2ccc(S(=O)(=O)Nc3ccccn3)cc2)cc1C | -5.55
COc1ccc(Cl)cc1NC(=O)CSc1nnc2c(n1)[nH]c1ccccc12 | -12
COc1ccc(NS(=O)(=O)c2ccc(NS(=O)(=O)c3ccc(C)cc3)cc2)nn1 | -5.45
Cc1cc(NS(=O)(=O)c2ccc(NC(=O)COc3cccc(Br)c3)cc2)nc(C)n1 | -1.85
Cc1ccc2[nH]c3nc(SCC(=O)Nc4cccc(Cl)c4Cl)nnc3c2c1 | -17
O=C(/C=C/c1cccnc1)N1CCCC(c2cc3ccccc3c(Nc3nccs3)n2)C1 (stereo not given) | -4.39
Cc1cc(C)nc(NS(=O)(=O)c2ccc(NC(=S)NC(=O)/C=C/c3ccco3)cc2)n1 | -2.58
O=C(CCCOc1ccc(Cl)cc1)Nc1ccc(S(=O)(=O)Nc2ncccn2)cc1 | 0.53
CC(C)(C)C(=O)N1CCC(Cc2ccc(Nc3ncc(-c4ccc(F)cc4)s3)nc2)CC1 | 12.2
COc1cccc(CC(=O)N2CCC(c3cccc(Nc4nc(C)c(C)s4)n3)CC2)c1 | 2.52
CC(C)(C)c1ccc(OCC(=O)Nc2ccc(S(=O)(=O)Nc3ccccn3)cc2)cc1 | -2.22
Cc1ccnc(NS(=O)(=O)c2ccc(NS(=O)(=O)c3ccc(F)cc3)cc2)n1 | -1.79
O=C(COc1ccc(-c2ccccc2)cc1)Nc1ccc(S(=O)(=O)Nc2ccccn2)cc1 | -8.43
Cc1cnc(Nc2cccc(C3CCCN3C(=O)COc3ccccc3)n2)s1 (stereo not given) | -20.5
COc1ccc(C(=O)Nc2ccc(S(=O)(=O)Nc3ccccn3)cc2)cc1OC | 2.76
O=C(Nc1ccc(S(=O)(=O)Nc2ncccn2)cc1)c1ccccc1F | -5.27
O=C(O)CCOCCOCCNc1ccc2c(c1)C(=O)N(C1CCC(=O)NC1=O)C2=O (stereo not given) | -0.35
COc1cccc(OC)c1C(=O)Nc1ccc(S(=O)(=O)Nc2nccc(C)n2)cc1 | -1.58
Cc1cc(OCC(=O)Nc2ccc(S(=O)(=O)Nc3ncccn3)cc2)ccc1Cl | 5.52
O=C(c1ccc2c(c1)OCCO2)N1CCC(c2cccc(Nc3nccs3)n2)CC1 | -18.7

Compound | relative growth in counter assay [%]
Cc1csc(Nc2cccc(C3CCCN3C(=O)c3cnc(C)nc3C)n2)n1 (stereo not given) | -4.08
CC(C)(N)C(=O)N1CCC(CO)(c2cccc(Nc3ncc(-c4ccccc4)s3)n2)CC1 | -23.9
CNC(=O)C(c1cccc(Nc2ncc(C)s2)n1)C1CCN(C(=O)c2cccc(Cl)c2F)CC1 (stereo not given) | -0.24
Cc1cnc(Nc2cccc(C3CCN(C(=O)[C@@H]4CCCCN4)CC3)n2)s1 | -21
CCOC(=O)c1ccc(N2C(=O)c3ccc(Oc4ccc(N)cc4)cc3C2=O)cc1 | 1.1
Cc1cc(C)nc(NS(=O)(=O)c2ccc(NC(=S)NC(=O)/C=C/c3cccs3)cc2)n1 | -2.17
Cc1csc(Nc2cccc(C3CN(C(=O)CCn4ncc5ccccc54)CCO3)n2)n1 (stereo not given) | 18.1
Cc1ccnc(NS(=O)(=O)c2ccc(NC(=O)c3cccs3)cc2)n1 | -6.06
Cc1cnc(Nc2cccc(C3CCCN3C(=O)Cn3cnc4ccccc43)n2)s1 (stereo not given) | -24.3
CC(=O)Nc1ccc(S(=O)(=O)Nc2ccc(S(=O)(=O)Nc3nccc(C)n3)cc2)cc1 | -2.04
COc1ccc2[nH]c(SCC(=O)Nc3ncccn3)nc2c1 | -6.84
Cc1cnc(Nc2cccc(C3CCCN3C(=O)CCCc3ccc(F)cc3)n2)s1 (stereo not given) | 10.1
CC(=O)Nc1ccc(C(=O)Nc2ccc(S(=O)(=O)Nc3nccc(C)n3)cc2)cc1 | -3.58
Cc1cc(C)nc(NS(=O)(=O)c2ccc(NC(=O)c3cc4ccccc4oc3=O)cc2)n1 | -1.73
O=C(Nc1ccc(S(=O)(=O)Nc2ccccn2)cc1)c1ccc(Cl)cc1 | 3.06
O=C(COc1ccc(Cl)cc1)Nc1ccc(S(=O)(=O)Nc2ncccn2)cc1 | -5.81
Cc1cnc(Nc2cccc(C(C(=O)N(C)C)C3CCN(C(=O)C4CCCCC4)CC3)n2)s1 (stereo not given) | 0.69
CN(C)CC(=O)N1CCCC1c1cccc(Nc2nccs2)n1 (stereo not given) | -0.55
Cc1csc(Nc2cccc(C3CCCN3C(=O)Cn3c(C)cc(C)nc3=O)n2)n1 (stereo not given) | -2.64
COc1ccccc1/C=C/C(=O)Nc1ccc(S(=O)(=O)Nc2cc(C)nc(C)n2)cc1 | -22
CCCc1cnc(Nc2cccc(C3CCN(C(=O)CNC(=O)OC(C)(C)C)CC3)n2)s1 | -6.76
Cc1cccc(OCC(=O)Nc2ccc(S(=O)(=O)Nc3ncccn3)cc2)c1C | -5.94
Cc1cc(C)nc(NS(=O)(=O)c2ccc(NC(=O)c3ccccc3Cl)cc2)n1 | -0.34
O=C(CCn1ncc2c1CCCC2)N1CCOC(c2cccc(Nc3nccs3)n2)C1 (stereo not given) | 13.2

Compound | relative growth in counter assay [%]
COC(=O)CCC(=O)Nc1ccc(S(=O)(=O)Nc2cc(OC)nc(OC)n2)cc1 | -4.82
O=C(O)CCOCCOCCOCCNc1cc2c(cc1F)C(=O)N(C1CCC(=O)NC1=O)C2=O (stereo not given) | 0.94
Cc1cnc(Nc2cccc(C3CCN(C(=O)CCC4CCCCC4)CC3)n2)s1 | 8.69
Cc1cnc(Nc2cccc(C3CN(C(=O)CC4CCCCC4)CCO3)n2)s1 (stereo not given) | -15.4
COc1cc(NS(=O)(=O)c2ccc(NC(=O)C3CC3)cc2)nc(OC)n1 | -2.77
Cc1cc(C)nc(NS(=O)(=O)c2ccc(Nc3nc(-c4ccc(C)c(C)c4)cs3)cc2)n1 | -1.55
Cc1cnc(Nc2cccc(C3CCN(C(=O)C4(NC(=O)C(C)C)CCCCC4)CC3)n2)s1 | -24.4
CCCc1cnc(Nc2cccc(C3CCN(C(=O)[C@@H]4CCCCN4C(=O)COC)CC3)n2)s1 | 0.85
CCNc1nc(NCC)nc(NS(=O)(=O)c2ccc(N)cc2)n1 | -0.92
NCC(=O)N1CCC(c2cccc(Nc3ncc(Br)s3)n2)CC1 | -20.7
CC(C)(C)c1ccccc1OCC(=O)Nc1ccc(S(=O)(=O)Nc2ccccn2)cc1 | 4.41
Cc1cnc(Nc2cccc(C3CCN(C(=O)C4CCC4)CC3)n2)s1 | -21
Cc1ccc(OCC(=O)Nc2ccc(S(=O)(=O)Nc3nc(C)cc(C)n3)cc2)c(C)c1 | 0.72
CC(=O)Nc1ccc(S(=O)(=O)Nc2ccc(Cl)cn2)cc1 | 11.9
Cc1nc(Nc2cccc(C3CCCN3C(=O)c3n[nH]c4c3CCCC4)n2)sc1C (stereo not given) | 4.66
Nc1ccc(S(=O)(=O)Nc2nccc(/C=C/c3ccc([N+](=O)[O-])cc3)n2)cc1 | 4.76
COc1cccc(CCC(=O)N2CCOC(c3cccc(Nc4ncc(C)s4)n3)C2)c1 (stereo not given) | 6.36
Cc1ccc(OCC(=O)Nc2ccc(S(=O)(=O)Nc3ccccn3)cc2)c(C)c1 | 4.7
Cc1cc(C)nc(NS(=O)(=O)c2ccc(NC(=O)c3ccccc3Br)cc2)n1 | -0.06
Cc1cnc(Nc2cccc(C3CN(C(=O)C4CCCCC4)CCO3)n2)s1 (stereo not given) | -16.6
COc1cc(NS(=O)(=O)c2ccc(NC(=O)c3ccc(C)cc3)cc2)nc(OC)n1 | 12.5
COCC(C)NC(=O)CN1CCC(c2cccc(Nc3nccs3)n2)CC1 (stereo not given) | -1.53
CC(=O)N1CCCC1c1csc(Nc2ccccn2)n1 (stereo not given) | 6.68
